Laboratory results reported in PubChem BioAssay AID1794844 (National Center for Advancing Translational Sciences (NCATS), 2023).
Out of some 2,800 compounds screened, fewer than 10 were called active. Inconclusive means that the source gave no clear call. Such entries were picked first, then a sample of the others. The call rests on the fitted dose curve; in most records, active means well fitted inhibition curve with a large enough effect; inconclusive means small, poorly fitted or top-dose-only effect; inactive means no such curve, though single readings can be large or run the other way. Where the call is inconclusive, the potency comes from a doubtful curve fit.
Potency means the concentration at half of the fitted maximal effect; tags describe the fitted curve by direction and shape.
Wherever activity, negative = inhibition is given: % of control where 0% means no effect.

What follows are molecules tested against Metallo-beta-lactamase type 2 (Klebsiella pneumoniae) (UniProt C7C422) (assay: qHTS to identify inhibitors of the New Delhi Metallo-beta-lactamase (NDM): Nitrocefin screen against the machine-based learning selections.). Settings: NDM-1 enzyme, nitrocefin hydrolysis, absorbance 485 nm; activity, negative = inhibition: at 38.4 µM (top of the series) unless noted.
Chain of UniProt C7C422 (C7C422 whole entry, looked up): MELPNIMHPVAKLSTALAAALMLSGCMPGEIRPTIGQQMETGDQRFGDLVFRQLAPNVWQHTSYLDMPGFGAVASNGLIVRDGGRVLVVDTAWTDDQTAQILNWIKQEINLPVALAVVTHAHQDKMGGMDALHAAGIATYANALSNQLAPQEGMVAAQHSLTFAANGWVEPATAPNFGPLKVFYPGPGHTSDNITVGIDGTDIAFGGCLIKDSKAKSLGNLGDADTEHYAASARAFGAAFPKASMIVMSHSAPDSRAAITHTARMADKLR
Summary of the method: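 NDM-1 (2 nM final) in 50 mM HEPES pH 7.0, 1 uM Zn2SO4, 0.01% Tween20 was preincubated with compounds for >30 min. Nitrocefin (16.7 uM final) was read at 485 nm after 15 min, and meropenem (50 uM final) at 300 nm after 30 min.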
In the case of `NC(=O)c1ccc(-c2ncc3cnc(-c4cccc(F)c4)cn23)cc1`, the Potency is reported as inconclusive: 27.3 µM [inhibitor, single point]. `O=C(Nc1cccc(C(F)(F)F)c1)N[C@H]1CO[C@H]2[C@@H]1OC[C@@H]2Nc1nccc(-c2ccc(-c3ccccc3)cc2)n1` was tested, and the “activity, negative = inhibition” value was inactive: 3.13%. In the case of `Cc1ccc2c(n1)N(C)[C@H](CO)CCN(Cc1cccnc1)C2`, the “activity, negative = inhibition” value is reported as inactive: 4.8% [at 57.5 µM]. With `CC(C)(C)CC(=O)NC[C@H]1OC[C@@H](NC2CCNCC2)[C@@H]1O` the Potency was inconclusive: 19.3 µM [inhibitor, partial curve]. With `C[C@@H]1CN(C(=O)Cn2ccc(=O)[nH]c2=O)C[C@@]1(O)C1CCC1` the “activity, negative = inhibition” value was inactive: 3.92%. `CCN(CC)Cc1nc(C2(O)CCN(C)CC2)cs1` was tested, and the “activity, negative = inhibition” value was inactive: -1.47% [at 76.7 µM]. With `OC1(CN2CCN(c3nccs3)CC2)CCCNC1` (centres undefined) the Potency was inconclusive: 26.6 µM [inhibitor, single point]. With `O=C(c1nc2ccccc2[nH]1)N1CCNc2cnc(Nc3ccc(-n4ccnc4)cc3)nc2C1` the Potency was inconclusive: 29.9 µM [inhibitor, single point]. `OC[C@@H]1O[C@H](CNCc2ccc(F)cc2)[C@H](N2CCN(c3ccccc3)CC2)[C@@H]1O` was tested, and the Potency was inconclusive: 15 µM [inhibitor, partial curve]. In the case of `Cc1nccn1-c1ccccc1CNC1CCC2(CCNCC2)CC1`, the Potency is reported as inconclusive: 15 µM [inhibitor, partial curve]. With `N[C@@H](Cc1cnc[nH]1)C(=O)NCc1cccnc1Oc1ccc(F)cc1F` the “activity, negative = inhibition” value was inactive: -1.51%. With `CNC(=O)[C@@H](c1ccc(Cl)cc1)N1CCC[C@H]1C(=O)N1CCCC1` the Potency was inconclusive: 19.3 µM [inhibitor, partial curve]. For `Cc1ccc(NC(=O)[C@@H]2CNC[C@H](C(=O)NCc3ccccn3)C2)cn1`, the Potency was inconclusive: 3.76 µM [inhibitor, full curve, poor fit]. With `COCc1cn(C[C@H]2C[C@@H](NS(C)(=O)=O)[C@H](O)[C@@H]2O)nn1` the Potency was inconclusive: 19.3 µM [inhibitor, partial curve]. `CC(=O)Nc1cccc(-c2n[nH]c3c2CC(=O)N(c2ccccc2)C3)c1` was tested, and the Potency was inconclusive: 0.0034 µM [inhibitor, full curve, poor fit]. In the case of `NCCc1cccc(CN2CCCC(COc3ccccc3F)C2)c1` (centres undefined), the “activity, negative = inhibition” value is reported as inactive: -4.55%. With `Cc1ccc(C2(O)CCN(C(=O)c3cnn4cc(CCO)cnc34)CC2)nc1` the “activity, negative = inhibition” value was inactive: -0.405%. `COCCNC(=O)Cc1c[nH]c2ncc(-c3cccnc3)cc12` was tested, and the Potency was inconclusive: 43.3 µM [inhibitor, single point]. For `O=C(NC[C@H]1O[C@@H](CO)[C@@H](O)[C@H]1N1CCOCC1)Nc1ccc(OC(F)(F)F)cc1`, the Potency was inconclusive: 15 µM [inhibitor, partial curve].
